According to PMC10668032:
Some of the results follow. At the low end of the ranking the order means little.

These sequences were tested against SIX1 homeodomain (reference allele) (UniProt Q15475) (assay: universal protein binding microarray). Settings: Universal all-10-mer PBM (8x60K, AMADID 030236), 300 nM GST-tagged protein, Alexa Fluor 488 anti-GST; buffer, salt, pH and temperature not stated; high values mean tight binding; most listed sequences are background and not binding sites; double strand, one strand shown.

Sequence	binding signal [E-score]
CCTATTCG	-0.0766
CCGAATGC	-0.235
ACGTTCCA	-0.207
CGAAAATC	-0.126
AAATTTTG	-0.366
ACGCACAG	0.0126
CGCTTAGC	-0.26
ACGCTATC	0.296
GAGCAAAA	-0.335
AGACTCGG	-0.0525
AGCACTCC	0.018
ATAGGGGC	0.228
TTTATAAA	-0.0635
ATGTGTGA	-0.0866
GCCACCGA	-0.109
GGGTGTTA	0.282
TCAGTCAA	-0.0827
ATAGCTAG	0.13
CGCAAACG	-0.188
ACGGGCTC	-0.14
GACGGGGA	0.133
CCTCATTC	-0.138
AGAAGGGC	0.0108
ATCCAAAA	0.151

Sequence	binding signal [E-score]
AAGTCACC	-0.34
CGACTATC	0.246
CCCTGCGC	-0.225
CCTTCTGA	0.0645
GGCCACTA	-0.133
CTTGTGCC	0.0117
CCAAACCA	-0.109
TCTGTTCA	-0.137
CCCGTCTC	0.205
AGAAAGCT	-0.234
ACAGGCTG	-0.179
CGTTTATA	0.059
GGACTGTA	-0.0181
ACCAGGGG	0.111
GTACCCGA	-0.0334
AGATGAGC	-0.0122
GATACCGC	0.461
GCGCTAAA	-0.167
CGACTGAC	-0.181
ATAGGGCA	0.0854
CTTATCGC	0.111
CACTTAAG	-0.0738
CGCAGGGC	0.0944
AAAGGGCG	-0.213

Sequence	binding signal [E-score]
ATCGAGAT	0.324
GTTATAAC	-0.243
GCTGAGCA	-0.105
GCAGGTAC	-0.206
CCGCCGTC	-0.111
CTTACCCC	0.153
ATGTTTTC	-0.23
CCCCGATA	0.347
AGTAGAAC	-0.0724
AGATAAGA	0.114
ACATCATG	-0.0411
ACGGGATG	0.0307
ACGCCAAC	-0.0608
CGCACACC	0.11
CGCTAGCC	-0.191
TGCCCTAA	-0.294
AAGACGAC	0.0916
ACCGTCAT	-0.00137
GAATAGTC	-0.111
AACCATCG	-0.0607
CGCTGCTC	-0.193
CGGTCGAC	-0.039
GCGGTTCA	-0.273
CCTCAGAG	-0.101

Sequence	binding signal [E-score]
CTCTTGTA	-0.0529
CCGTGTAC	0.127
CGATTTTA	-0.166
CCCTGTGC	0.0301
AAAGAAAA	-0.296
GGGATAGA	0.256
CGAGAGTA	0.135
CTATCCAC	0.219
CCAATGCG	0.0208
ATTACACA	0.0975
AGGTGCTG	-0.126
GATTCCCC	0.0765
GAGCATGA	-0.186
CCACTCAC	-0.0474
TGGACACA	-0.0786
GAGGCGGC	-0.0904
GATAGAAA	0.00081
TCCTTGCA	-0.157
AATTTCAT	0.0136
CGGTGTGC	0.11
AAAAGTGT	-0.201
AGATTTAG	0.0296
